Results published in the RNAGym collection of RNA variant scans (doi:10.7554/elife.90254).
The source gives no read counts; variants with many changes may rest on few reads.

B1: LINE1-mini (parent)
chain: GGCAGAGCUCAACACAGCGUGGCAAAGUGGCUGUGGCUAGACUGCC

Variants of: B1
Assay: self-cleavage, relative activity (ratio to wild type); higher = more cleavage; in vitro, sequencing; the parent is a self-cleaving ribozyme

Q: With A6U C13G G33C as the variant, how does the self-cleavage read?
A: 0.07

Q: Which self-cleavage does the source give for C10G A16C G30U G40C C45U here?
A: 0

Q: For C3U C8U G29A, which self-cleavage is on record?
A: 0.9

Q: For C13G C31U C37U A39C, which self-cleavage is on record?
A: 0.03

Q: For C3A G22A G29C U43G, which self-cleavage is on record?
A: 0.02

Q: For C15G A25C G36C, which self-cleavage is on record?
A: 0.02

Q: For C8U C15U G33U C46A, which self-cleavage is on record?
A: 0.02

Q: With G1C C23U G30C U43C as the variant, how does the self-cleavage read?
A: 0.03

Q: Which self-cleavage does the source give for C13G C18U C31U here?
A: 0.08

Q: With G2C G5A G40A as the variant, how does the self-cleavage read?
A: 0.09

Q: For G2A G5U C18A A24G G29A G40A, which self-cleavage is on record?
A: 0.04

Q: Which self-cleavage does the source give for G1C C15A U38A A41G here?
A: 0

Q: With A6C C15U G17U C18A U20G G30U C45G as the variant, how does the self-cleavage read?
A: 0.03

Q: With C10G G30U G33U G36C G40U as the variant, how does the self-cleavage read?
A: 0.01

Q: With C13U A14U C46U as the variant, how does the self-cleavage read?
A: 0.04

Q: Which self-cleavage does the source give for A14G U28C G40C here?
A: 0.04

Q: Which self-cleavage does the source give for A12G C15U U28A U32G here?
A: 0.02

Q: With G2A G21A A25C A26C as the variant, how does the self-cleavage read?
A: 1.55

Q: With G5A C10U A12U U28G C31U G35A as the variant, how does the self-cleavage read?
A: 0.04

Q: Which self-cleavage does the source give for A16G G30U C37U U38C here?
A: 0.04

Q: For G1U G5U G21U G35U G36A C37U A41U, which self-cleavage is on record?
A: 0.2

Q: For U9C A16G U20C G29A, which self-cleavage is on record?
A: 0.01

Q: Which self-cleavage does the source give for A16G C31A A41C C42G C46U here?
A: 0.01

Q: Which self-cleavage does the source give for C8G C23A G30U here?
A: 0.17

Q: With U9G C10U U20G G21A G29C G33A G40U G44A as the variant, how does the self-cleavage read?
A: 0.02

Q: Which self-cleavage does the source give for A4C A11U G19C here?
A: 0.03

Q: For C3A G33C G35U, which self-cleavage is on record?
A: 0.15

Q: With G7C U9G C10U G22A U38C as the variant, how does the self-cleavage read?
A: 0.02

Q: Which self-cleavage does the source give for G1A C13U A25G here?
A: 0.03

Q: For A4G G5A G19U C45G, which self-cleavage is on record?
A: 0.01

Q: With C3U G30U G33A G44A as the variant, how does the self-cleavage read?
A: 0.04

Q: With C8A A26C U34C as the variant, how does the self-cleavage read?
A: 0.01

Q: With G1U A4U G5A A12C as the variant, how does the self-cleavage read?
A: 0.12

Q: For U9G C13U G19U A39C, which self-cleavage is on record?
A: 0.09

Q: With A4C U38A A41G as the variant, how does the self-cleavage read?
A: 0.07

Q: With A6C G19C G27U G40U G44U as the variant, how does the self-cleavage read?
A: 0.16

Q: Which self-cleavage does the source give for C31U C42G U43C here?
A: 0.04

Q: Which self-cleavage does the source give for U28G G36C C37A A39G here?
A: 0.08

Q: With G7A A12G G40C A41C as the variant, how does the self-cleavage read?
A: 0.01

Q: For C10U G22U G35C, which self-cleavage is on record?
A: 0.03

Q: Which self-cleavage does the source give for G2A A16U C37U here?
A: 0.23

Q: Which self-cleavage does the source give for G27C U34A C37U G40A here?
A: 0.02

Q: For A14C C18U U28A, which self-cleavage is on record?
A: 0.11

Q: Which self-cleavage does the source give for C3U A11G G17A A24U C31A here?
A: 0.02

Q: Which self-cleavage does the source give for G7A C23G A41G here?
A: 0.24

Q: Which self-cleavage does the source give for A6U C23U U32C here?
A: 0.25

Q: Which self-cleavage does the source give for A6G G21U A24U G35U here?
A: 0.19

Q: Which self-cleavage does the source give for C3U A4U A6G C10U here?
A: 0.03

Q: For A11G A12U G29C C31A, which self-cleavage is on record?
A: 0.02

Q: With A25U G29A U34G C42A as the variant, how does the self-cleavage read?
A: 0.06

Q: For A16G C18U G19A A41C, which self-cleavage is on record?
A: 0.03

Q: Which self-cleavage does the source give for C13U A25U G27U here?
A: 0.02

Q: With G5A C15U G22U G29C G30U U32C G40A as the variant, how does the self-cleavage read?
A: 0.03

Q: Which self-cleavage does the source give for A4G A24G G35U here?
A: 0.37

Q: For C15U U20G C46U, which self-cleavage is on record?
A: 0.13

Q: Which self-cleavage does the source give for A4C C10A G30A here?
A: 0.03

Q: With A25G U28G G35U G36A C45U as the variant, how does the self-cleavage read?
A: 0.02

Q: For C23A G36C G40C C45G, which self-cleavage is on record?
A: 0.03

Q: Which self-cleavage does the source give for C13U A16C G17A here?
A: 0.1

Q: For C8U G17U U34A, which self-cleavage is on record?
A: 0.42

Q: With A6G G7C C13U U28G G33A as the variant, how does the self-cleavage read?
A: 0.08

Q: Which self-cleavage does the source give for C3A U20A G29A C31A here?
A: 0.16

Q: Which self-cleavage does the source give for A24C G33C U43C here?
A: 0.04

Q: Which self-cleavage does the source give for G2C U20C A39C C42A here?
A: 0.03

Q: Which self-cleavage does the source give for A25G G29A U38C here?
A: 0.43

Q: For G29C U32G C42G, which self-cleavage is on record?
A: 0.14

Q: Which self-cleavage does the source give for G27C G30U G40C here?
A: 0.07

Q: For C10A A12U G17A C37U C42A C46A, which self-cleavage is on record?
A: 0

Q: For C10G C18U G29A G44C, which self-cleavage is on record?
A: 0.18

Q: For G5C G7C G21A, which self-cleavage is on record?
A: 0.21

Q: With A14U U20A G22C G33A C46A as the variant, how does the self-cleavage read?
A: 0.04

Q: With G5C C18G A39U U43A as the variant, how does the self-cleavage read?
A: 0.06

Q: With A11C G17U G29U C46G as the variant, how does the self-cleavage read?
A: 0.01

Q: Which self-cleavage does the source give for A16G G22U G30A here?
A: 0.2

Q: Which self-cleavage does the source give for A4U C10U A14U C45A here?
A: 0.04

Q: For A4G A11U G17U G29U, which self-cleavage is on record?
A: 0.02

Q: With A11G U32A U43A as the variant, how does the self-cleavage read?
A: 0.03

Q: With C10G G19C G44U C45G as the variant, how does the self-cleavage read?
A: 0

Q: For C13G U20G G29U, which self-cleavage is on record?
A: 0.15

Q: Which self-cleavage does the source give for A4U G5U G21C A39G here?
A: 0.1

Q: With A4G G22U G30U C46U as the variant, how does the self-cleavage read?
A: 0.1

Q: Which self-cleavage does the source give for G7A A12G G21A C42A here?
A: 0.12

Q: Which self-cleavage does the source give for C10U G36U A41G U43G here?
A: 0

Q: With C8G A25G A26U G33C as the variant, how does the self-cleavage read?
A: 0.14
